Assay results from PubChem BioAssay AID686978 (National Center for Advancing Translational Sciences (NCATS), 2013).
The campaign covered roughly 420,000 compounds. About 64,000 (15%) were called active. The inconclusive results got no clear call from the source; some entries with a clear call stand among them for comparison. The call rests on the fitted dose curve; in most records, active means well fitted inhibition curve with a large enough effect; inconclusive means small, poorly fitted or top-dose-only effect; inactive means flat fitted curve, though single readings scatter. No potency is given beside an inconclusive call; the fits are too rough.

Assay: qHTS for Inhibitors of human tyrosyl-DNA phosphodiesterase 1 (TDP1): qHTS in cells in absence of CPT; further: nearly all actives have a fitted effect of over 55% in size
Conditions: DT40 Tdp1-/- hTDP1 cells, no CPT, ATP luminescence, 48 h; activity change, negative = growth inhibition: at 46.2 µM (top of the series) unless noted
Procedure, shortened: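 Cells were dispensed at 400 per well, compounds added by pin tool, plates incubated ≥48 hr at 37 °C, then CellTiter-Glo added for 30 min at room temperature before luminescence reading. Line: DT40 Tdp1-/- complemented with hTDP1; camptothecin omitted.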
On the % scale 0 is the no-effect control and ±100 the full control effect; potency means the concentration at half of the fitted maximal effect; tags describe the fitted curve by direction and shape.

SMILES | Potency | activity change, negative = growth inhibition
COc1ccc(C(=O)N2CCN(c3nnnn3-c3ccccc3)CC2)cc1OC | inactive | 
CCN(CC)CC(=O)N1c2ccccc2Sc2ccc(Cl)cc21 | inactive | 
O=C(CCl)Nc1c(C(=O)Nc2ccc3c(c2)OCCO3)oc2ccccc12 | active: 10.3 µM | 
CCOC(=O)C1(CCOC)CCCCC1=O (stereo unspecified) | inactive | 
COc1ccc(-c2cc(C3CCN(Cc4ccc([N+](=O)[O-])cc4)CC3)[nH]n2)cc1 | inconclusive [inhibitor, partial curve] | 
COC(=O)c1cc2c(s1)CS(=O)C2 (stereo unspecified) | inconclusive [inhibitor, single point] | 
Cc1cc(=O)n2nc(N3CCC(C(=O)NCc4cccc(Cl)c4)CC3)sc2n1 | inactive | 
Cc1ccc(CNC(=O)c2cc3c(=O)n(C)c4ccccc4c3n2C)cc1 | inconclusive [inhibitor, single point] | 
COc1cccc(CNC(=O)[C@@H]2CCCN2C(=O)[C@H]2CCCCN2C(=O)OC(C)(C)C)c1 | inactive | 
O=C(/C=C/c1ccccc1)NC(=S)NNC(=O)c1ccco1 | active: 20.6 µM | 
CCCCCCCNC(=O)C1(CC2CC(c3ccc(Cl)cc3)=NO2)CCN(C(=O)OC(C)(C)C)CC1 (stereo unspecified) | active: 20.6 µM | 
COC(=O)[C@@H]1CCCN1C(=O)c1c(OC)cc(=O)n2c1CCN(Cc1ccc3c(c1)CCO3)CC2 | inactive | 
COc1ccc2c(=O)c3c(=O)n(Cc4ccco4)c(-c4cc(OC)c(OC)c(OC)c4)nc3oc2c1 | inconclusive [inhibitor, partial curve, poor fit] | 
COc1cc(/C=N/N=C2/C(=O)Nc3ccccc32)cc(OC)c1O | inconclusive [inhibitor, partial curve] | 
COc1cc(/C=C(/C#N)C(=O)NCc2ccccc2)cc(OC)c1OC | inconclusive [inhibitor, single point] | 
O=C(O)CC(NC(=O)C(c1ccccc1)c1ccccc1)c1ccc(F)cc1 (stereo unspecified) | inactive | 
CC1=C(C(=O)N(C(C)C)C(C)C)CC(CC(=O)NCc2cccc3ccccc23)C(=O)N1CCC1=CCCCC1 (stereo unspecified) | inconclusive [inhibitor, single point] | 
Cc1ccc(NC(=O)N2CCC(C(=O)NCc3ccc(F)cc3)CC2)cc1 | inactive | 
CCN(CC)c1ccc(Nc2cc3n(c(=O)n2)CCc2cc(OC)c(OC)cc2-3)cc1 | inconclusive [inhibitor, partial curve] | 
CC(C)(C)C(=O)O/N=C(\N)c1ccc([N+](=O)[O-])s1 | active: 6.51 µM | 
CCN(CC)S(=O)(=O)c1ccc(NCc2ccccn2)nc1 | inactive | 
COc1ccc(CC(=O)OCc2cc3ccccc3[nH]c2=O)cc1 | inconclusive [inhibitor, single point] | 
C[C@]12CCC3c4ccc(OC(=O)c5ccccc5)cc4CCC3C1CCC2=O (stereo partly specified) | inactive | 
Cc1cccc(COC[C@H](Cc2ccccc2)N2CCN(C(=O)c3cccc(C)c3)CCC2=O)c1 | inconclusive [inhibitor, single point] | 
Cc1ccc(-n2c(=O)c3cccnc3n2CC(=O)Nc2cccc(C)c2C)cc1 | inconclusive [inhibitor, partial curve, poor fit] | 
CC(=O)Nc1cc(C(=O)N2CCOCC2)ccc1S(=O)(=O)c1ccc(C)cc1 | inactive | 

SMILES | Potency | activity change, negative = growth inhibition
O=C(c1ccc(F)cc1)N1CCN(c2ccc([N+](=O)[O-])c(N3CCOCC3)c2)CC1 | inconclusive [inhibitor, single point] | 
COc1ccc(-c2coc3c(C)c4oc(=O)c(CC(=O)O)c(C)c4cc23)cc1 | inactive | 
N#CCSc1ccccc1NC(=O)CN1C(=O)NC(CCc2ccccc2)C1=O (stereo unspecified) | inactive | 
Cc1cccn2c(Nc3ccccc3)c(-c3ccc(N4CCOCC4)cc3)nc12 | active: 5.8 µM | 
CC12CC3(C)CC(C)(C1)CC(C(=O)NC1=NCCS1)(C2)C3 | inconclusive [inhibitor, single point] | 
CCCCCOC(=O)CSc1nc2c(c(=O)[nH]c(=O)n2C)n1CCc1ccccc1 | inconclusive [inhibitor, single point] | 
COCCCNC(=O)C1CCN(C(=O)c2cc3sccc3n2Cc2ccc(F)cc2)CC1 |  | inconclusive: -31.3% [inhibitor]
CCc1nc(N2CCCCC2)c2oc3ccccc3c2n1 | inconclusive [inhibitor, single point] | 
CN(C)S(=O)(=O)c1cc(NC(=O)COC(=O)CC2CC3CCC2C3)ccc1Cl (stereo unspecified) | inactive | 
C=CCNCCCOc1ccc(C(C)(C)c2ccccc2)cc1 | inconclusive [inhibitor, single point] | 
COC(=O)c1ccccc1Oc1c(F)c(F)nc(N2CCOCC2)c1F | inactive | 
CCn1c(SCc2ccc(C(=O)OC)o2)nnc1-c1c[nH]c2ccccc12 | inconclusive [inhibitor, full curve, poor fit] | 
OC(COCc1ccc(Cl)cc1)CN1CCc2ccccc2C1 (stereo unspecified) | inconclusive [inhibitor, single point] | 
S=C(N/N=C/c1ccc(Cl)cc1)N1CCOCC1 | active: 0.0184 µM | 
Cc1nn(-c2ccccc2)c(OC(=O)c2ccccc2F)c1S(=O)(=O)c1ccccc1 | inactive | 
CCOc1cc(S(=O)(=O)Nc2cc(C)cc(C)c2)ccc1Cl | active: 16.4 µM | 
O=C(CCN1C(=O)/C(=C/c2ccccc2)SC1=S)NCCCN1CCOCC1 | inconclusive [inhibitor, single point] | 
Cc1nn(CCCC(=O)NCc2ccccc2Cl)c(=O)c2nccn12 | inactive | 
COc1cccc2sc(N(Cc3cccnc3)C(=O)COc3ccccc3)nc12 | inactive | 
CC1(C(=O)NC(=S)NNC(=O)c2ccncc2)CCCCC1 | active: 16.4 µM | 
O=C(NNC(=S)NC(=O)c1ccccc1[N+](=O)[O-])c1ccc(Cl)cc1Cl | inconclusive [inhibitor, single point] | 
S=c1[nH]nc(-c2ccco2)n1/N=C/c1ccc(Br)s1 | inactive | 
Cc1ccc2cc(C(c3nnnn3Cc3ccccc3)N3CCc4ccccc43)c(=O)[nH]c2c1C (stereo unspecified) | inconclusive [inhibitor, single point] | 
COc1cc(CN(C(=O)c2ccccc2[N+](=O)[O-])c2ccccn2)cc(OC)c1OC | active: 14.6 µM | 
Cn1cccc1C(=O)NCC1COc2ccccc2O1 (stereo unspecified) | inactive | 
Cc1ccccc1C(=O)N1CCC[C@@H]1C(=O)N1CCC[C@H]1C(=O)NCc1ccncc1 | inactive | 

SMILES | Potency | activity change, negative = growth inhibition
Cc1ccc(C)c(NC(=O)CSc2nc(=O)n(CCN(C)C)c3c2CCC3)c1 | inactive | 
O=C(CSc1nnc2c(n1)[nH]c1ccccc12)NC1CCCCC1 |  | inconclusive: -30.6% [inhibitor]
Cc1sc2c(c1C)c(=O)n(CCc1ccccc1)c(=O)n2Cc1ccccc1Cl | inactive | 
COc1ccccc1C1CC(c2cccs2)=Nc2ccccc2S1 (stereo unspecified) | inconclusive [inhibitor, single point] | 
COc1cc(Cl)ccc1OCc1cc(C(=O)NCC(C)c2ccccc2)no1 (stereo unspecified) | inactive | 
CCn1cc(CNC(=O)c2cc(-c3ccccc3OC)nc3ccccc23)c(C)n1 | active: 14.6 µM | 
COc1ccccc1NC(=O)CC(=O)c1ccccc1 | inconclusive [inhibitor, single point] | 
COc1cccc(N2CCN(C(=O)c3cccc(NC(=O)c4nsc5ccccc45)c3)CC2)c1 | active: 20.6 µM | 
CCCc1nc2c(C)cc(C)cc2c(N)c1CC | inconclusive [inhibitor, single point] | 
OCCC1CN(Cc2nc(-c3ccc(F)cc3)cs2)CCN1CCc1ccccc1 (stereo unspecified) | inconclusive [inhibitor, single point] | 
N#Cc1ccccc1NC(=O)c1cc2c(=O)n3ccccc3nc2s1 | inactive | 
C=C(C)COc1ccc2c(C)c(CC(=O)N3C[C@H]4C[C@@H](C3)c3cccc(=O)n3C4)c(=O)oc2c1 | inactive | 
O=C(CSCc1ccc(Cl)cc1)N1CCCCC1 | active: 16.4 µM | 
CCCN(Cc1nnc(-c2ccccc2Cl)o1)C(=O)c1ccc(C)c(S(=O)(=O)N2CCOCC2)c1 | inconclusive [inhibitor, single point] | 
Cc1ccc(-c2noc(CNc3ccccc3)n2)cc1 | inconclusive [inhibitor, single point] | 
COc1ccc(CCNC(=O)C2=C(C)C(=O)OC23CCCCC3)c(OC)c1OC | inconclusive [inhibitor, partial curve] | 
COCCNC(=O)C1CCCN(C(=O)c2sccc2C)CC1 (stereo unspecified) | inactive | 
Cc1ccc(Cn2c(C3CCCN3c3nc(-c4ccc(F)cc4)cs3)nc3cc(C(=O)NCCCO)ccc32)cc1 (stereo unspecified) | inconclusive [inhibitor, single point] | 
Cc1cc(C)n2nc(C(=O)Nc3cccc(S(=O)(=O)N4CCCC4)c3)nc2n1 | inactive | 
COC(=O)c1c(C)oc(C)c1S(=O)(=O)N1CCCCC1 | inconclusive [inhibitor, single point] | 
FC(F)(F)c1ccccc1Cc1c(C2CCCCC2)nc2ccc(Br)cn12 | inconclusive [inhibitor, single point] | 
CCn1cc(CNC(=O)c2cccc([N+](=O)[O-])c2)c(C)n1 | inactive | 
CCn1c(=O)c2cc(C(=O)N3CCN(c4cccc(Cl)c4)CC3)sc2c2ccccc21 | active: 23.1 µM | 
CCc1ccc2[nH]c3nc(N/N=C/c4ccc(O)cc4O)nnc3c2c1 | inconclusive [inhibitor, single point] | 
